This assay concerns the target T1, OSD1 (OMISSION OF SECOND DIVISION), yeast two-hybrid bait (Arabidopsis thaliana) (UniProt Q9M2R1).
T1 sequence: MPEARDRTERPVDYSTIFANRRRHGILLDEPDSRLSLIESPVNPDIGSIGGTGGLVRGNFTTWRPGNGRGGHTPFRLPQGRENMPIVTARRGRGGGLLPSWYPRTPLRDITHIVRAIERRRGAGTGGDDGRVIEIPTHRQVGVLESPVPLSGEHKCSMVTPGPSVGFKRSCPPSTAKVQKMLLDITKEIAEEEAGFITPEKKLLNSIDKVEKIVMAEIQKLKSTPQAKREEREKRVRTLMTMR
Nature of the assay: two-hybrid; OSD1 as bait (pDEST32) with different APC/C subunits as prey (pDEST22), by mating.

These are yes or no findings as the source states them, for the method shown.

B1: APC4, yeast two-hybrid prey (protein, UniProt O65418 1-777)
chain: MSEMASDEEENIIPFQLQFDKPIPFQIKIAEWNPEKDLLAMVTEDSKILLHRFNWQRLWTISPGKPVTSLCWRPDGKAIAVGLEDGTISLHDVENGKLLRNLKPHDVAVVCLNWEEDGQSNTDESGNFSVYEDRTSRFFPPAPRPPKMPGLVAGDSSFMDDGEDSLAELSNTSFRKFNILCTGDRDGNICFSIFGIFQIGKINIHELSLPVPHLDEHASCKLFNASIYKVALSKDLCRLVVMCTGELKDCDIKPREEKINVQDLPGLHCLAMDTSIFWKRKYELHQVAQQASNIEDLTEVIRASLSVMNKQWADAMKTFHEKFHSLSTLIIDNGLESSPQEEFLSLLGGARISPALNQFLVNSLGEVGVKRVLKSVCGTGKELQQVVLDHLQPAAEIIGFRIGELRGLSRWRARYQGIGLDEMLLNEATENTGLLLVQVQRFMMVLSSVVQQFSNFFNWLVRSIKYLMQEPNDQLLSYNSELLVVFLKFLYDQDPVKDLLELSEAGDDIEIDLKTIGRVKELLQFGGFSECDFLQRTLAKEFQHMESSFKMAFQMPFTTISRKISCMKLLPLCPLQLSTTQTPTTIPMSLSFYKNELSDDTPCQSGYTDYISFQVPDETFPEISNCIGIAKGYKQNSNNEKNGYTSLEAVLLSVPNGYTCVDLSLYKDKELVLLLNKTNTDSEGSGEACMMVVQTGDLAFISISGSSSLNQWELEDLKGSIVNLEMENEKVRKVPHSVIAPLAVSASRGVACVFAERRRALVYILEEDEDEEISDEK
Turning to B1, the binding result is given as “no binding”.

B2: APC11, yeast two-hybrid prey (protein, UniProt Q9M9L0 1-84)
chain: MKVKILQWHAVASWTWDAQDETCGICRMAFDGCCPDCKLPGDDCPLIWGACNHAFHLHCILKWVNSQTSQAHCPMCRREWQFKE
As to B2, the binding entry is listed as “no binding”.

B3: APC7, yeast two-hybrid prey (protein, UniProt Q8VY89 1-558)
chain: MEVPKEQIATLIEHGLYDSAEMLGCFLVSSPTVSAETSPQLKAENLILLGDALFHQREHRRAIHTYKQALHHYTRIPKQSSGISRSSLSLSTRSSVNASSISAINENEVRFKIASSHFALNETKAAIAEMESVKTRSLEMNILMAKLHRNSGYNRGAIAFYKECLRQCPYVLEAVIGLAELGVSAKDIISSFTQTSNRSAKVSLDQIDPTRWLQRYVEAQCCVASHAYKGALELFAELLQRFPNNVHLLTETAKVEAIIGKNDEAIMRFEKVRSIDPYTLTSMDEYAMLLQIKCDYSRLNKLVHDLLSVDHTRAEVFVALSVLWERKDARTALSYAEKSIRVDERHIPGYIMKGNLLLQAKRPEAAAIAFRAAQNLRSDLRSYQGLVHSYLAFGKTKEALYTAREAMNAMPQSAKALKLVGDVHAFTSSGREKAKKFYESGLRLEPGYLGAVLALAELHLMEGRNGDAVSLLERYLKDYADDSLHVKLAQVFAATNMLQDSLSHFQAALRINPQNEAAKKGLDRLEKQMKGIDPDATDENDENDVEDVDGDTEEAELM
Regarding B3, the binding result is listed as “no binding”.

B4: APC2, yeast two-hybrid prey (protein, UniProt Q8H1U5 1-865)
chain: MEALGSSDCNLEILETLSDDAIQEITESYDGFFTTVESLIAGTGDSLVEDEFVSHVYCLCKYGLDSLVRDHFLRSLEQAFEKGGASSFWQHFDAYSEKKHHNYGEEIQIVLCKALEEISIEKQYHEKCLSIVVHALQSFKEQSSDDRQNSDTERVHLFSRFQSMLSSTLMTTLPQHFPEILHWYFKERLEELSAIMDGDGIEEQEDDCMDLDEKLRYKNGEMDVDEGCSQGKRLGHDKLVKNIGKVVRDLRSIGFTSMAENAYASAIFLLLKAKVHDLAGDDYRTSVLESIKEWIQTVPLQFLNALLSYLGDSVSYGTTSSGLTSPLACCPSPSFSRVVTPSEGIVRWKLRLEYFAYETLQDLRIAKLFEIIVDYPESSPAIEDLKQCLEYTGQHSKLVESFISSLKYRLLTAGASTNDILHQYVSTIKALRAIDPAGVFLEAVGEPIRDYLRGRKDTIKCIVTMLTDGSGGNANGSGNPGDSLLEELMRDEESQENVGFDDDFHTDDKQAWINASRWEPDPVEADPLKGSLSQRKVDILGMLVDIIGSKEQLVNEYRVMLAEKLLNKTDYDIDTEIRTVELLKIHFGEASMQRCEIMLNDLIDSKRVNTNIKKASQTGAELRENELSVDTLTSTILSTNFWPPIQDEPLELPGPVDKLLSDYANRYHEIKTPRKLLWKKNLGTVKLELQFEDRAMQFTVSPTHAAIIMQFQEKKSWTYKDLAEVIGIPIDALNRRVNFWISKGVLRESTGANSNSSVLTLVESITDSGKNEGEELLTGEEEGETSIASVEDQLRKEMTIYEKFIMGMLTNFGSMALERIHNTLKMFCVADPSYDKSLQQLQSFLSGLVSEEKLEFRDGMYLLKK
Turning to B4, the binding entry was “no binding”.

B5: APC5, yeast two-hybrid prey (protein, UniProt Q8H1U4 1-916)
chain: MAGLTRTAGAFAVTPHKISVCILLQIYAPSAQMSLPFPFSSVAQHNRLGLYLLSLTKSCDDIFEPKLEKLINQLREVGEEMDAWLTDHLTNRFSSLASPDDLLNFFNDMRGILGSLDSGVVQDDQIILDPNSNLGMFVRRCILAFNLLSFEGVCHLFSSIEDYCKEAHSSFAQFGAPNNNLESLIQYDQMDMENYAMDKPTEEIEFQKTASGIVPFHLHTPDSLMKATEGLLHNRKETSRTSKKDTEATPVARASTSTLEESLVDESLFLRTNLQIQGFLMEQADAIEIHGSSSSFSSSSIESFLDQLQKLAPELHRVHFLRYLNKLHSDDYFAALDNLLRYFDYSAGTEGFDLVPPSTGCSMYGRYEIGLLCLGMMHFRFGHPNLALEVLTEAVRVSQQLSNDTCLAYTLAAMSNLLSEMGIASTSGVLGSSYSPVTSTASSLSVQQRVYILLKESLRRADSLKLRRLVASNHLAMAKFELMHVQRPLLSFGPKASMRHKTCPVSVCKEIRLGAHLISDFSSESSTMTIDGSLSSAWLKDLQKPWGPPVISPDSGSRKSSTFFQLCDHLVSIPGSVSQLIGASYLLRATSWELYGSAPMARMNTLVYATLFGDSSSSSDAELAYLKLIQHLALYKGYKDAFAALKVAEEKFLTVSKSKVLLLKLQLLHERALHCGNLKLAQRICNELGGLASTAMGVDMELKVEASLREARTLLAAKQYSQAANVAHSLFCTCHKFNLQIEKASVLLLLAEIHKKSGNAVLGLPYALASISFCQSFNLDLLKASATLTLAELWLGLGSNHTKRALDLLHGAFPMILGHGGLELRARAYIFEANCYLSDPSSSVSTDSDTVLDSLRQASDELQALEYHELAAEASYLMAMVYDKLGRLDEREEAASLFKKHIIALENPQDVEQNMA
For B5, the binding result is reported as “no binding”.

B6: CDC27a, yeast two-hybrid prey (protein, UniProt Q06AN9 1-717)
chain: MMENLLANCVQKNLNHFMFTNAIFLCELLLAQFPSEVNLQLLARCYLSNSQAYSAYYILKGSKTPQSRYLFAFSCFKLDLLGEAEAALLPCEDYAEEVPGGAAGHYLLGLIYRYSGRKNCSIQQFRMALSFDPLCWEAYGELCSLGAAEEASTVFGNVASQRLQKTCVEQRISFSEGATIDQITDSDKALKDTGLSQTEHIPGENQQDLKIMQQPGDIPPNTDRQLSTNGWDLNTPSPVLLQVMDALPPLLLKNMRRPAVEGSLMSVHGVRVRRRNFFSEELSAEAQEESGRRRSARIAARKKNPMSQSFGKDSHWLHLSPSESNYAPSLSSMIGKCRIQSSKEATTSGQSVSDIGSSVDDEEKSNPSESSPDRFSLISGISEVLSLLKILGDGHRHLHMYKCQEALLAYQKLSQKQYNTHWVLMQVGKAYFELQDYFNADSSFTLAHQKYPYALEGMDTYSTVLYHLKEEMRLGYLAQELISVDRLSPESWCAVGNCYSLRKDHDTALKMFQRAIQLNERFTYAHTLCGHEFAALEEFEDAERCYRKALGIDTRHYNAWYGLGMTYLRQEKFEFAQHQFQLALQINPRSSVIMCYYGIALHESKRNDEALMMMEKAVLTDAKNPLPKYYKAHILTSLGDYHKAQKVLEELKECAPQESSVHASLGKIYNQLKQYDKAVLHFGIALDLSPSPSDAVKIKAYMERLILPDELVTEENL
Regarding B6, the binding entry is listed as “no binding”.

B7: HBT, yeast two-hybrid prey (protein, UniProt Q8LGU6 1-744)
chain: MEAMLVDCVNNSLRHFVYKNAIFMCERLCAEFPSEVNLQLLATSYLQNNQAYSAYHLLKGTQMAQSRYLFALSCFQMDLLNEAESALCPVNEPGAEIPNGAAGHYLLGLIYKYTDRRKNAAQQFKQSLTIDPLLWAAYEELCILGAAEEATAVFGETAALSIQKQYMQQLSTSLGLNTYNEERNSTSTKNTSSEDYSPRQSKHTQSHGLKDISGNFHSHGVNGGVSNMSFYNTPSPVAAQLSGIAPPPLFRNFQPAVANPNSLITDSSPKSTVNSTLQAPRRKFVDEGKLRKISGRLFSDSGPRRSSRLSADSGANINSSVATVSGNVNNASKYLGGSKLSSLALRSVTLRKGHSWANENMDEGVRGEPFDDSRPNTASTTGSMASNDQEDETMSIGGIAMSSQTITIGVSEILNLLRTLGEGCRLSYMYRCQEALDTYMKLPHKHYNTGWVLSQVGKAYFELIDYLEAEKAFRLARLASPYCLEGMDIYSTVLYHLKEDMKLSYLAQELISTDRLAPQSWCAMGNCYSLQKDHETALKNFLRAVQLNPRFAYAHTLCGHEYTTLEDFENGMKSYQNALRVDTRHYNAWYGLGMIYLRQEKLEFSEHHFRMAFLINPSSSVIMSYLGTSLHALKRSEEALEIMEQAIVADRKNPLPMYQKANILVCLERLDEALEVLEELKEYAPSESSVYALMGRIYKRRNMHDKAMLHFGLALDMKPPATDVAAIKAAMEKLHVPDEIDESP
As for B7, the binding result is reported as “no binding”.

B8: APC6, yeast two-hybrid prey (protein, UniProt B3DNN5 1-543)
chain: MREEEIEKIRGVVRDCVSKHLYSSAIFFADKVAALTNDPSDIYMQAQALFLGRHYRRAFHLLNASKIVLRDLRFRYLAAKCLEELKEWDQCLLMLGDAKVDDDGIVYDAKDGNVIDFDKDGEDREINISSAICFLRGKAYGALQNRSQARQWYKAAIKADPLCYEALECLIESHMLTSEEESSLLSSLQFSPEDGWLSSFYSCLIKKYDKESTVELKFKKLENETSGSVSGSSMITLANNTDLLACKAEYYHQCCEYQKCFELTAALLEKDPFHLKCTLVHLAAAMELGNSNELYLMACNLVKDYPSKALSWFAVGCYYYCIKKYAEARRYFSKATGIDGSFSPARIGYGNSFAAQEEGDQAMSAYRTAARLFPGCHLPTLYIGMEYMRTHSYKLADQFFMQAKAICPSDPLVYNELGVVAYHMKEYGKAVRWFEKTLAHIPSALTESWEPTVVNLAHAYRKLRKDREAISYYERALTLSTKSLSTYSGLAYTYHLQGNFSAAISYYHKALWLKPDDQFCTEMLNVALMDECQNGVDSKVELC
As for B8, the binding result was “no binding”.

The values are drawn from publication PMC3406007.
